Whole data set: some 110,000 compounds, median “z-score” near -0.1, cut for the highest 2% near 2. The list shows a part of the results.
Each compound was assayed against Metabotropic glutamate receptor 8 (Rattus norvegicus) (UniProt P70579) (assay: rat mGluR8 modulators via GIRK flux, primary screen, cell-based, thallium flux, HTS (AID 488969)). Details: HEK293 rat mGluR8, GIRK (G protein-gated inwardly rectifying potassium channel) thallium flux, FluoZin2; at 10 µM; stronger effect = higher value; submaximal glutamate (EC20) added with thallium.
UniProt P70579, sequence (P70579 whole entry, looked up): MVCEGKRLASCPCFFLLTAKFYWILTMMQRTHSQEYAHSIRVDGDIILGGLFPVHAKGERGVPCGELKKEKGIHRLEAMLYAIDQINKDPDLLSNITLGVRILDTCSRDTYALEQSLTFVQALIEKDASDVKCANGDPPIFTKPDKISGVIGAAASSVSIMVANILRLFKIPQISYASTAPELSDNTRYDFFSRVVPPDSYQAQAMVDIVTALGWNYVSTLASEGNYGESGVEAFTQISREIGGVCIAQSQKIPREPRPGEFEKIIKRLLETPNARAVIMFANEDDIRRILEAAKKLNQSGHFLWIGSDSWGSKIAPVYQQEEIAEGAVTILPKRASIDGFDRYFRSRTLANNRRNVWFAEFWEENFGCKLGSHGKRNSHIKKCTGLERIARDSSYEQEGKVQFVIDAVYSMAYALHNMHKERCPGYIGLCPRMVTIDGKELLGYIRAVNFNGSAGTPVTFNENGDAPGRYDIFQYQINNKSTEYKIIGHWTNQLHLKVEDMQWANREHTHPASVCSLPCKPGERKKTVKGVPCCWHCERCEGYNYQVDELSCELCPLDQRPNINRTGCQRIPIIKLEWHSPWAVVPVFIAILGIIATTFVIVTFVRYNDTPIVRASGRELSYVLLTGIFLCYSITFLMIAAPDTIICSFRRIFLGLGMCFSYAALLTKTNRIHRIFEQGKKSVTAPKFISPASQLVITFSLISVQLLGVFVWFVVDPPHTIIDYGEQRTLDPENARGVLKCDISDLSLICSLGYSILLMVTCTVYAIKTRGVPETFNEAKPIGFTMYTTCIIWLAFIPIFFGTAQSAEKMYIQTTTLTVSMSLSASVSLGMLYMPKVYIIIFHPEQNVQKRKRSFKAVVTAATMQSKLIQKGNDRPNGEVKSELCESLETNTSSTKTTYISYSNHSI

SMILES	z-score
CCOC(=O)c1nnc(-c2ccccc2)nc1Sc1ccccc1Cl	-0.115
O=C(c1cccc(S(=O)(=O)N2CCOCC2)c1)N1CCCc2ccccc21	-0.828
CSc1nnc(-c2ccccc2N=Cc2c(C)[nH]n(-c3ccc4ccccc4c3)c2=O)c(=O)[nH]1	0.358
CC1CCc2c(C(=O)Nc3ccc(OC(F)(F)F)cc3)csc2C1 (centres undefined)	-0.225
NNC(=O)CNC(=O)c1cccc(Br)c1	0.117
CCN(C(=O)CSc1ncccc1C(=O)Oc1cccc([N+](=O)[O-])c1)c1cccc(C)c1	-0.431
O=C(O)C1CC=CCC1C(=O)NC12CC3CC(CC(C3)C1)C2 (centres undefined)	0.0352
NC(=O)c1ccc(NC(=O)COC(=O)c2c3c(nc4ccccc24)/C(=C\c2cccs2)CCC3)cc1	-0.38
O=[N+]([O-])c1ccc(NCCCNS(=O)(=O)c2ccc(Cl)cc2)c(Cl)c1	-0.0607
Cc1cc(C)n(-c2nc3sc4c(c3c3nnc(SC(C)C)n23)CC(C)(C)OC4)n1	-1.58
COC(=O)C(C#N)C(c1cccnc1)c1c(C)[nH][nH]c1=O (centres undefined)	0.0437
O=C(O)CCCCCN1C(=O)/C(=C/c2ccncc2)SC1=S	-0.0629
CC(=O)N1CCN(c2ccc(NCc3ccc4c(c3)OCO4)cc2)CC1	-0.235
O=C(CSc1nc(O)c(Cc2ccccc2)c(=O)[nH]1)Nc1ccccc1	-0.392
COc1ccccc1C(=O)Nn1c(-c2cccs2)nc2ccccc2c1=O	0.229
CN1CCc2c(c3c(n2C)CCN(C)[C@H]3c2ccccc2F)[C@@H]1c1ccccc1F	-0.147
Cc1ccc(-n2c(-c3ccncc3)nnc2-c2cccs2)cc1	-0.207
CCOC(=O)N1CCN(CC(O)COc2ccccc2C(C)C)CC1 (centres undefined)	0.377
CC(NC(=O)CCSc1nc(-c2ccc3c(c2)OCO3)cc(C(F)(F)F)n1)c1ccccc1 (centres undefined)	-0.673
c1ccc(-n2cnc3cc(NCc4ccccn4)ccc32)cc1	0.062
CN(C(=O)COC(=O)c1cc(Br)c(Br)s1)C1CCS(=O)(=O)C1 (centres undefined)	-0.419
O=C(c1cnc2n(c1=O)CCS2)N1CCN(c2ccccc2F)CC1	-0.0161

SMILES	z-score
Cc1cc(=O)[nH]c(SC/C=C/c2ccccc2)n1	-0.481
CSc1nc2sc3c(c2c2nnnn12)CCCC3	0.38
O=C(N/N=C/c1cn(-c2cccs2)nc1-c1ccccc1)c1ccccc1Br	-0.355
CCOc1ccc(N2C(=O)CC(Sc3nc4ccc(OCC)cc4s3)C2=O)cc1 (centres undefined)	-0.136
COCCNCC(=O)Nc1ccccc1Sc1ccccc1	-0.304
Cc1noc2ncnc(Sc3ccc(Cl)cc3)c12	0.302
COc1c([N+](=O)[O-])c(=O)oc2ccccc12	-0.321
O=C(COC(=O)[C@@H]1CCCN1S(=O)(=O)c1ccc(Cl)cc1)NCC(F)(F)F	-0.281
CS(=O)(=O)N(CC(=O)N1CCCC1)c1ccc(OCc2ccccc2)cc1	0.216
O=S(=O)(Nc1cccc(-c2cn3cccnc3n2)c1)c1ccccc1	-0.202
COc1ccc(-c2cc(=O)oc3c(C)c(OC(=O)c4cccs4)ccc23)cc1	0.444
Cc1ccc(N2C(=O)CSC2c2c(F)cccc2Cl)cc1 (centres undefined)	0.0105
COc1nc(C)nc2c1sc1nc3c(cc12)COC(C)(C)C3	1.74
CCN1CCN(C(=O)c2cnn3c(C(F)F)cc(-c4ccc(C)cc4)nc23)CC1	-0.204
CN(C)C(=O)C1(c2ccccc2)CCN(S(=O)(=O)c2ccccc2)CC1	0.0763
O=C(Nc1ccncc1)c1ccc(F)cc1	-0.0387
CC(=O)N1C(=O)c2cccc3cccc(c23)C(=O)N1C(C)=O	0.73
O=C(CSc1nnc(-c2cccs2)n1-c1ccccc1)N1CCOCC1	-0.174
C=C(C)c1cccc(C(C)(C)NC(=O)N2CCCC2)c1	-0.0205
O=C(Nc1c(F)cc(F)cc1Br)c1cc2nc(C(F)F)cc(C(F)F)n2n1	-0.371
O=C(CS(=O)(=O)c1cn(Cc2ccc(Cl)cc2)c2ccccc12)N1CCCC1	-0.128
CCN(CCNC(=O)C1CCN(Cc2nc(-c3cccc(Cl)c3)oc2C)CC1)c1ccccc1	1.25

SMILES	z-score
COc1ccc(NCC(=O)N/N=C/c2c(C)nn(Cc3ccccc3)c2Cl)cc1	-0.0241
Cc1cc(-n2c(C)cc(C(=O)CSc3ncnc4ccccc34)c2C)no1	0.406
COc1ccc(Br)cc1-c1noc(-c2ccccc2)n1	-0.0746
C#CCN1C(=O)C(O)(CC(=O)c2ccc3c(c2)OCCO3)c2ccccc21 (centres undefined)	-0.134
Cc1ccc(NC(=O)c2sc(Cl)nc2C)c(C)c1	-0.333
O=C(O)COc1ccc(NC(=O)c2ccco2)cc1	0.0389
CC1=C(C(=O)Nc2ccccc2)C(c2ccc(N(C)C)cc2)NC(=O)N1 (centres undefined)	1.37
O=C(CSc1ncccc1-c1nc2ccccc2[nH]1)N1CCCCC1	0.119
Cc1ccc(NC(=O)CSc2ncn(-c3ccccc3)n2)cc1C	-0.951
O=c1c2cc3c(cc2[nH]c(=S)n1CCN1CCOCC1)OCO3	-0.119
O=C(NCc1ccc2c(c1)OCO2)C1CCCN1C(=O)Nc1ccccc1 (centres undefined)	0.00954
COc1ccc(Cl)cc1-c1n[nH]c(=S)o1	0.331
CC1(C(=O)O)COC(c2ccc([N+](=O)[O-])cc2)OC1 (centres undefined)	-0.377
COc1ccc(C2N=C(N)N=C(N)N2c2ccccc2)cc1OC (centres undefined)	0.936
CCN(CC)CCNC(=O)c1cc2c(=O)n(C)c3ccccc3c2n1C	1.25
C=CCc1cccc(/C=N/NC(=O)CCCNc2ccc(C)cc2)c1O	-0.144
O=C(COC(=O)CCS(=O)(=O)c1ccc(Cl)cc1)Nc1ncc(Cl)cc1Cl	-0.291
CCOC(=O)CCCSc1nc2sc3c(c2c(=O)[nH]1)CCC3	-0.174
COc1ccc(-c2nc(-c3ccc(Br)o3)no2)cc1OC	1.2
COc1cc(/C=C/c2c([N+](=O)[O-])c(=O)n(C)c(=O)n2C)cc(OC)c1OC	-0.109
COC(=O)N(C)CCCC1(C)C(=O)N(C)c2ccc(O)cc21 (centres undefined)	0.151
Cn1c(C(=O)NCc2ccccn2)cc2c(=O)n(C)c3ccccc3c21	0.138

SMILES	z-score
CCOCc1nnc(NC(=O)CSc2ccc(C)cc2)s1	0.219
Cc1ccnc(NCn2nnc3ccccc32)c1	0.0468
C=CCNc1nc(NC(C)(C)CO)nc(OC)n1	-0.0508
Cc1noc(C)c1COC(=O)COc1cccc2c1OC(C)(C)C2	-0.442
CC(=O)c1c(C)[nH]c(C(=O)NCCc2ccccc2)c1C	-1.08
c1ccc(SCCCCNC2CCCC2)cc1	0.687
O=C(CSc1nc2ccccc2s1)Nc1ccc(N2CCOCC2)c(Cl)c1	0.284
CCOc1cccc(OCCOCCn2cnc3ccccc3c2=O)c1	0.0931
CC(C)CC(C(=O)O)N(Cc1ccccc1)Cc1ccccc1 (centres undefined)	-0.132
O=C1CN(C(=O)c2ccco2)C(c2ccc(F)cc2)c2cc(Cl)ccc2N1 (centres undefined)	-0.575
CCCCNC(=O)c1cccc(C(=O)NCCCC)c1	-0.0718
O=C(CSc1nnnn1C1CCCC1)NCc1ccccc1	-0.858
CC1=CC=CC2=NC(=O)CC(C)(C(=O)N(CC(=O)NC3CCCC3)c3ccccc3C)N12 (centres undefined)	0.0485
O=C(COC(=O)c1ccc2c(c1)OCO2)NCc1ccc2c(c1)OCO2	-0.128
Cn1c(=O)c2c(nc(N3CCCCC3)n2CCSc2nc3ccccc3o2)n(C)c1=O	0.0376
COc1cccc(NC(=O)c2cccc(OC)c2OC)c1	-0.545
Cn1c(=O)c2c(nc(SCC(=O)OCc3ccccc3)n2C)n(C)c1=O	0.701
C=CCN(CC=C)S(=O)(=O)c1ccc(NC(=S)NC(=O)/C=C/c2ccccc2)cc1	0.472
O=C(COC(=O)c1cc(-c2ccc(Cl)s2)nc2ccccc12)NCc1ccco1	-0.0527
CCOC(=O)c1c(NC(=O)C2CCCO2)sc(C(N)=O)c1C (centres undefined)	-0.0328
COCC(C)NC(=O)CCSc1nc(-c2ccc(OC)cc2)cc(C(F)(F)F)n1 (centres undefined)	-0.288
COc1ccc(OC)c(NC(=O)CSc2nnc(Cc3cccn3C)n2-c2ccc(F)cc2)c1	-0.326

SMILES	z-score
C/C(=C\c1ccccc1)CN1CCC(C(=O)N2CCCCC2)CC1	-0.00947
O=C(NC(=S)Nc1ccc(N2CCCCC2)cc1)c1ccco1	-1.53
Cn1c(=O)c2c(O)cc(=O)n(-c3ccccc3)c2n(C)c1=O	-0.178
COc1cccc(CN(Cc2cccnc2)S(=O)(=O)c2ccc(-n3cnnn3)c(C)c2)c1	-0.768
CCCCn1c(SCC(=O)NC(C)CC)nc2ccc(N3CCOCC3)cc2c1=O (centres undefined)	0.126
CCOC(=O)/C(N=Nc1c(C)n(C)n(-c2ccccc2)c1=O)=C(\C)O	-1.56
Cc1ccccc1CS(=O)(=O)CCC(=O)NCCN1CCN(c2cccc(Cl)c2)CC1	-1.31
COc1cccc(C(c2nnnn2CS(=O)(=O)c2ccc(C)cc2)N2CCN(C)CC2)c1OC (centres undefined)	0.319
Cc1ccc(N=CC2=C(O)CC(c3cccc(Cl)c3)CC2=O)cc1 (centres undefined)	-0.158
CCS(=O)(=O)c1ccc2c(c1)N(S(C)(=O)=O)CC(C(=O)NC1CC1)O2 (centres undefined)	-0.433
CCOC(=O)CN1C(=O)C2Cc3ccccc3CN2C1=S (centres undefined)	-0.137
O=C(Oc1ccc(Cl)c2cccnc12)c1cccc([N+](=O)[O-])c1	0.0891
COc1ccc(N2C(=O)/C(=C/c3ccc([N+](=O)[O-])cc3)C=C2c2ccccc2)cc1	-0.197
COc1ccc(C(C)(C)C)cc1NC(=O)c1cncc(Br)c1	-0.242
O=S(=O)(Nc1nc2ccc(S(=O)(=O)N3CCCCC3)cc2s1)c1ccccc1	-0.0175
CC(=O)Nc1ccc(NCC(O)COc2ccccc2)cc1 (centres undefined)	-0.497
O=C(NCc1cccnc1)c1cc(S(=O)(=O)N2CCCCC2)ccc1Cl	0.175
O=C(COC(=O)c1cccc(S(=O)(=O)N2CCCCC2)c1)NC1CCCc2ccccc21 (centres undefined)	-0.538
CCCCN1C(=O)N(C)C2NC(=O)NC21 (centres undefined)	-0.136
O=S(=O)(c1ccc(Br)cc1)n1ccc2ccccc21	-0.883
Nc1nc2ccccc2n1/N=C/c1ccc([N+](=O)[O-])s1	-0.00295

— PubChem BioAssay AID488969 (Vanderbilt High Throughput Screening Facility, 2010)
